Among the data in the supplement of paper PMC4723716 are viability index values, retold here.

± gives the uncertainty stated by the source. Whole data set: some 9,900 compounds, median “viability index relative to DMSO control” near 1, cut for the lowest 2% near 0.85. The list shows a part of the results.

The subject of this assay is Plasmodium falciparum NF54 stage V gametocytes. Put plainly: viability index relative to DMSO control (fraction); higher = less gametocyte killing. The note with it: 2.5 µM, incubation time: 72 h. The procedure, abridged:
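P. falciparum NF54 stage V gametocytes in serum-free screening medium (0.75% gametocytemia, 1.25% hematocrit, 10 µl) were incubated with compound at 2.5 µM in 1,536-well plates for 72 hr at 37°C under low oxygen. Then 3 µl of 2.5 µM MitoTracker Red CMXRos plus 0.13% saponin was added for one to two hours. One field per well was imaged, 20–70 µm2 red particles were counted, and the viability index was the count divided by the plate mean of DMSO wells.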

Setting [1] is: library set: Broad Institute DOS.

Regarding `CS(=O)(=O)N1[C@@H](C#N)[C@H](c2ccc(-c3ccccc3F)cc2)[C@@H]1CO`, under setting [1], the viability index is 1.101 ± 0.0082. On the same count and under the same terms, the result for `CC(C)[C@@H]1C(=O)NCC/C=C/C[C@@H](C)Oc2ccccc2C(=O)N1C.CC(C)[C@@H]1C(=O)NCC/C=C\C[C@@H](C)Oc2ccccc2C(=O)N1C` reads 0.97 ± 0.1; that for `CCCNC(=O)C[C@H]1CC[C@@H]2[C@H](COc3ccc(NC(=O)CC)cc3C(=O)N2C)O1`, 1.11 ± 0.097. The same measure, in the same setting: then `CC(C)[C@@H]1C/C=C\CCNC(=O)[C@@H](C)CC(=O)N1`, with 1.05 ± 0.054; and `CN1c2ccc(-c3ccc(C#N)cc3)cc2[C@H]2[C@H](CCN2S(=O)(=O)c2ccc(F)cc2)[C@@H]1CO`, with 1.1 ± 0.071; and `C[C@H](CO)N1C[C@H](C)[C@H](CN(C)S(=O)(=O)c2ccc(F)cc2)OCCCC[C@H](C)Oc2ccc(N(C)C)cc2C1=O`, with 1.02 ± 0.088.

`COc1ccc([C@H]2C/C=C\C[C@H](c3ccc(F)cc3)NC(=O)CCC(=O)N2)c(OC)c1` displayed a viability index under setting [1] of 1.016 ± 0.0087. Compound `COc1ccccc1S(=O)(=O)N(C)C[C@@H]1OCc2ccccc2-c2ccccc2C(=O)N([C@H](C)CO)C[C@@H]1C` came in with a viability index under setting [1] of 1.047 ± 0.0047. Same read-out and setting: then `COc1ccccc1C#Cc1ccc2c(c1)[C@H]1[C@H](CCN1S(=O)(=O)c1cn(C)cn1)[C@@H](CO)N2`, with 1 ± 0.13; and `O=S(=O)(c1cccs1)N1CCCCN2[C@@H](CO)[C@@H](c3ccc(/C=C/c4ccccc4)cc3)[C@@H]2C1`, with 1.04 ± 0.04; and `COCC(=O)N1[C@H](C#N)[C@H](c2ccc(C#CCC3CCCC3)cc2)[C@H]1CO`, with 1.09 ± 0.032. On the same count and under the same terms, the result for `CCS(=O)(=O)Nc1ccc2c(c1)C(=O)N(C)[C@H]1CC[C@@H](CC(=O)NC3CCCCC3)O[C@@H]1CO2` reads 0.93 ± 0.1; that for `O=C(C1CCC1)N1C[C@@H]2[C@H](c3ccccc31)[C@H](CO)N2C(=O)Nc1cccc(F)c1`, 1.03 ± 0.12; that for `COCC(=O)N1[C@@H]2CN(C(=O)Nc3ccccc3Cl)c3ccccc3[C@@H]2[C@@H]1CO`, 1.12 ± 0.093.

Consider `O=C(C[C@H]1C[C@H]2c3cc(NS(=O)(=O)c4ccc(F)cc4)ccc3O[C@H]2[C@@H](CO)O1)NCc1cccnc1`, for which the viability index under setting [1] was 1.08 ± 0.015. Still for that read-out and setting: the result for `Cc1ccc(S(=O)(=O)N(C)C[C@@H]2Oc3c(NS(C)(=O)=O)cccc3C(=O)N([C@H](C)CO)C[C@H]2C)cc1` reads 0.949 ± 0.068. Under setting [1], `Cc1ccccc1S(=O)(=O)Nc1ccc2c(c1)C(=O)N(C)[C@H]1CC[C@@H](CC(=O)O)O[C@H]1CO2` displayed a viability index of 0.956 ± 0.044. On the same count and under the same terms, the result for `C[C@H]1CN([C@@H](C)CO)C(=O)c2ccccc2-c2ccccc2CO[C@H]1CN(C)C(=O)NC1CCCCC1` reads 1.02 ± 0.011; that for `CCCNC(=O)N1C[C@]2(CN(C2)C(=O)CN(C)C)c2c([C@@H]1CO)n(C)c1cc(OC)ccc21`, 0.965 ± 0.078; that for `CN1[C@@H]2c3ccc(-c4cccnc4)c(=O)n3C[C@@H]2[C@@H](CO)[C@@H]1C(=O)N1CCc2ccccc2C1`, 1.066 ± 0.006. As to `COCC(=O)N1[C@H](CO)[C@H](c2ccc(C#CC(C)C)cc2)[C@@H]1CNC(C)=O`, the viability index under setting [1] was 1.063 ± 0.0046.

Turning to `C[C@H]1CN([C@@H](C)CO)C(=O)CCCn2nncc2CO[C@H]1CN(C)Cc1cccc2c1OCCCO2`, the viability index under setting [1] came to 1 ± 0.079. On to `COCC#Cc1ccc([C@H]2[C@@H](CO)N3CCCCN(C(=O)NC4CCCC4)C[C@H]23)cc1`, for which the viability index under setting [1] amounted to 1.037 ± 0.008.

Take `Cc1cc(C(=O)Nc2ccc3c(c2)C(=O)N(C)[C@H]2CC[C@H](CC(=O)O)O[C@@H]2CO3)no1`: the viability index under setting [1] came out at 0.927 ± 0.12. Turning to `C[C@H](CO)N1C[C@H](C)[C@H](CN(C)S(=O)(=O)c2ccc(F)cc2)OCc2ccccc2-c2c(n(C)c3ccccc23)C1=O`, the viability index (library set: Broad Institute Blood Stage) was 0.942 ± 0.045. As for `C[C@@H]1CN([C@@H](C)CO)C(=O)Cc2cc(NS(=O)(=O)c3cccs3)ccc2O[C@H]1CN(C)CC1CCCCC1`, the viability index under setting [1] is 0.98 ± 0.083. Same read-out and setting: then `C[C@H]1CN([C@@H](C)CO)C(=O)CCCn2nncc2CO[C@H]1CN(C)C(=O)c1cc(-c2ccccc2)on1`, with 0.977 ± 0.052; and `CN1C(=O)c2cc(NS(C)(=O)=O)ccc2OC[C@@H]2O[C@H](CC(=O)NCc3ccccc3)CC[C@@H]21`, with 1.08 ± 0.038; and `O=C(NCC[C@H]1CC[C@@H](NS(=O)(=O)c2ccc(F)cc2)[C@H](CO)O1)c1ccc2c(c1)OCO2`, with 0.942 ± 0.11.

Take `Cc1ccc(NC(=O)Nc2ccc3c(c2)C(=O)N(C)[C@@H]2CC[C@H](CC(=O)NCC(F)(F)F)O[C@@H]2CO3)cc1`: the viability index under setting [1] was determined as 1.21 ± 0.066. On the same count and under the same terms, the result for `COc1ccccc1CNC(=O)C[C@@H]1C[C@@H]2c3cc(NC(=O)C4CCC4)ccc3O[C@@H]2[C@@H](CO)O1` reads 1.01 ± 0.015; that for `O=C(Nc1ccc(F)cc1)N1CC(=O)N2[C@H](C1)[C@@H](c1ccc(C#Cc3cccnc3)cc1)[C@@H]2CO`, 1.141 ± 0.0015.

Turning to `COc1ccc2c3c([C@@H](CO)NC[C@]33CCN(CC4CCCCC4)CC3)n(C)c2c1`, the viability index under setting [1] is 0.949 ± 0.041.

Turning to `COCC#Cc1ccc([C@@H]2[C@@H](CO)N3C(=O)CN(C(=O)c4ccncc4)C[C@@H]23)cc1`, under setting [1], the viability index was found to be 1.06 ± 0.018.
